# Laboratory results published in PubChem BioAssay (Tox21).
# The shares of active, inactive and inconclusive entries below differ from those in the screen. No potency is given beside an inconclusive call; the fits are too rough. The source made the active and inactive calls. Calls come from the whole dose curve; as a rule, active = well fitted cell-killing curve with a large enough effect in the repeat runs; inconclusive = weak or mixed curves, or effect the other way; inactive = no such curve, though single readings can be large or run the other way.
# Test: qHTS assay to identify small molecule antagonists of the thyroid receptor (TR) signaling pathway - cell viability counter screen (AID 743064); note: nearly all actives have a fitted effect of over 50% in size
# Conditions: GH3.TRE-Luc viability, CellTiter-Fluor, 24 h; activity change, negative = cytotoxic: at 70.3 µM (top of the series) unless noted
# Outline: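 Rat GH3 pituitary tumor cells stably expressing two TR response elements driving luciferase were plated, rested 4 h, then dosed with library compounds and T3 (1 nM final). After 23.5 h at 37 °C, CellTiter-Fluor was added for 30 min and fluorescence recorded.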
# % is set by controls: 0 for no effect and ±100 for the full control effect; potency is the fitted concentration of half-maximal effect; tags give direction and shape of the fitted curve.
Structure (SMILES),"activity change, negative = cytotoxic",Potency
CCNC(=O)NCc1cccc(Cl)c1,inconclusive: 38.2%,
O=C(Cl)c1cccc(C(=O)Cl)c1,,"inconclusive [rising, single point]"
O=C1OC[C@H](Cc2cccc(O)c2)[C@H]1Cc1cccc(O)c1,,inactive
CCCCOc1ccc(OCCCN2CCOCC2)cc1,,"inconclusive [cytotoxic, single point]"
S=c1[nH]c2ccccc2s1,,"inconclusive [rising, partial curve, poor fit]"
CCN(Cc1ccncc1)C(=O)C(CO)c1ccccc1 (stereo not drawn),,"inconclusive [rising, single point]"
O=C(O)c1cccc(-c2noc(-c3ccccc3F)n2)c1,,"inconclusive [rising, single point]"
COc1cc(C)ccc1O,,"inconclusive [rising, single point]"
Cc1ncc(CO)c(CO)c1O,,"inconclusive [rising, partial curve, poor fit]"
CCCCCCCCCCCCCCCC[N+](C)(C)CCN(Cc1ccc(OC)cc1)c1ncccn1,,active: 11.4 µM
Cc1cc(N)c(S(=O)(=O)O)cc1Cl,,"inconclusive [rising, single point]"
Cc1cc(O)ccc1O,,"inconclusive [cytotoxic, single point]"
Cc1c(C)c2c(c(C)c1OC(=O)CCC(=O)O)CC[C@@](C)(CCC[C@H](C)CCC[C@H](C)CCCC(C)C)O2,,"inconclusive [cytotoxic, full curve]"
